This is one part of the list.
tested on: T1, C. trachomatis L2/434/Bu expressing GFP (CTL2-GFP); design: species or system HeLa; C. trachomatis total inclusion area by high-content imaging, normalised to DMSO; settings: total inclusion area; 28.5 h, 10 µM; inhibitor
T1 construct: L2/434/Bu GFP intracellular growth in HeLa cells
How it was run: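 High-content imaging followed the bulk GFP/resorufin measurement: fixed, Hoechst-stained cells were scored for GFP inclusions and host nuclei per well. Total inclusion area and count served as growth proxies, nuclei number as the viability proxy. MIC calculation matched the bulk assay.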

Row | Structure (SMILES) | % of control remaining
1 | COc1ccccc1-c1ccc(CC2(C(=O)NCc3cccc(F)c3)CCOCC2)cc1 [CBK286521] | 86.6437
2 | O=C(O)CSc1nnc(-c2ccc3c(c2)OCO3)n1-c1ccccc1 [CBK131690] | 80.4848
3 | Cc1nc2cccnc2n1CCNC(=O)c1cccc(Cl)c1 [CBK283593] | 99.9821
4 | O=C(CC1S/C(=N/N=C/c2ccccc2C(=O)O)NC1=O)Nc1ccccc1 (stereo not drawn) [CBK264515] | 109.552
5 | Cc1cc(NS(=O)(=O)c2ccc(NC(=O)/C=C/c3ccc(C)o3)cc2)nc(C)n1 [CBK265474] | 45.1126
6 | O=C1OCCN1S(=O)(=O)c1ccc(CN2CCCN(Cc3ccc(S(=O)(=O)N4CCOC4=O)cc3)CC2)cc1 [CBK024728] | 96.4711
7 | C/C(=N\NC(=N)SC1CC(=O)N(c2ccc(C(=O)O)cc2)C1=O)c1cccs1 (stereo not drawn) [CBK262471] | 80.822
8 | CC(=O)N1CCN(c2ccccc2NC(=O)Cc2ccccc2C(=O)O)CC1 [CBK286802] | 113.347
9 | Cc1cc(C)n(C)c(=O)c1C(=O)NC(C)Cc1ccccn1 (stereo not drawn) [CBK283063] | 104.815
10 | Cc1nn(C(C)CC(=O)NC2CCCOC2)c(C)c1C (stereo not drawn) [CBK283133] | 96.4729
11 | Cc1cc(C)n2nc(C(=O)NCCCn3ccnc3C(C)C)nc2n1 [CBK307635] | 109.285
12 | COC(=O)c1ccc(-n2cc(-c3cccc(C(F)(F)F)c3)nn2)cc1 [CBK112936] | 90.761
13 | CO[C@@H](C(=O)Nc1cnc(-c2ccc(F)cc2)c(-c2ccsc2)n1)c1ccccc1 [CBK036803] | 82.0844
14 | Cc1cc(S(=O)(=O)Nc2cccc(Br)c2)c(C)cc1Cl [CBK043652] | 93.8662
15 | N#CCCCN1CCC2(CC1)CN(C(=O)CO)c1ccccc12 [CBK137007] | 34.7975
16 | CCNC(=O)Nc1cc2cccnc2nc1-c1cccc(C(F)(F)F)c1 [CBK070645] | 106.843
17 | Cc1ccc2c(c1)cc(C)c1nn(CC(=O)N3CCCCC3)c(=O)n12 [CBK283870] | 89.1848
18 | CNc1ccc2cccc(OCCO)c2n1 [CBK149727] | 58.5268
19 | Cc1ccc(OCC(=O)Nc2ccc3c(c2)oc2ccccc23)cc1[N+](=O)[O-] [CBK266036] | 124.368
20 | S=C(Nc1ccccc1)NC1C2CN3CCN(C2)CC1(c1ccccc1)C3 (stereo not drawn) [CBK261936] | 87.7789
21 | COCc1cc(=O)[nH]c(N2CCN(Cc3ccccc3)CC2)n1 [CBK270253] | 128.303
22 | C[C@@H]1CN(C(=O)c2ccc3[nH]cnc3c2)C[C@H](C)O1 [CBK200120] | 77.0692
23 | O=C1CC(c2cccs2)CC(=O)C1=CNCCN1CCNCC1 (stereo not drawn) [CBK264785] | 124.926
24 | CC(=O)C1=C(O)C(=O)N(CCCC(=O)O)C1c1cccc([N+](=O)[O-])c1 (stereo not drawn) [CBK263801] | 99.6977
25 | CC(C)C(NC(=O)C1C=CCN1S(C)(=O)=O)c1cccs1 (stereo not drawn) [CBK282701] | 120.19
26 | Cc1cccc(-c2nc(CN(C)CC(=O)NC(C)C)no2)c1 [CBK305109] | 44.5822

Row | Structure (SMILES) | % of control remaining
27 | Cc1cccc(C)c1-c1cn2ccnc2c(NC2CCOCC2)n1 [CBK037311] | 120.092
28 | COc1cc(Cn2c(=O)[nH]c3ncc(-c4ccco4)nc32)cc(OC)c1OC [CBK064461] | 74.3208
29 | Cn1[nH]c(CO)c(Cc2c(Cl)cccc2Cl)c1=O [CBK092278T] | 124.672
30 | Cc1ccc(C2=NN(C(=N)SC3CC(=O)N(c4ccc(C(=O)O)cc4)C3=O)C(c3ccc(Cl)cc3)C2)cc1 (stereo not drawn) [CBK262472] | 96.682
31 | COc1ccc(C(NC(=O)CSCc2cccc(C(=O)O)c2)c2ccc(OC)cc2)cc1 [CBK296680] | 86.7784
32 | Cc1cc(C)n(CCCC(=O)N2CCOCC(O)(CN3CCCC3)C2)n1 (stereo not drawn) [CBK306550] | 39.7846
33 | CC1CCCC(C)N1C(=O)CN1C2CCC1CC(O)(c1ccco1)C2 (stereo not drawn) [CBK284043] | 104.17
34 | FC(F)(F)c1ccc(CN2CCCN(c3ccnc(OCC4COc5ccccc5O4)n3)CC2)cc1 (stereo not drawn) [CBK083233T] | 84.6533
35 | COc1ccc(CN(C)c2c(C)nc3c(OCC(=O)C(C)(C)C)cccn23)cc1 [CBK147458] | 126.496
36 | Cc1cc2nc(/C(C#N)=C/c3ccncc3)[nH]c2cc1C [CBK268745] | 93.5388
37 | Cc1cc(C)c(S(=O)(=O)NC(C)C)c(C)c1-n1cnnn1 [CBK270197] | 97.5491
38 | CN1C(=O)C2(CC(=O)N(Cc3ccccc3)C2=O)c2cc(F)ccc21 (stereo not drawn) [CBK075268] | 98.3224
39 | O=C(O)c1ccc(COc2ccc(/C=C3\SC(=S)N(Cc4cccnc4)C3=O)cc2Cl)cc1 [CBK264672] | 116.856
40 | COCCNC(=O)C1CCN(c2nc3c(-c4ccccc4F)csc3c(=O)[nH]2)CC1 [CBK215434] | 101.673
41 | Cc1nc(-c2ccccc2)sc1CNC(=O)Cc1ccccc1F [CBK092372] | 97.463
42 | CS(=O)(=O)N(Cc1ccccc1)c1ccc(C(=O)Nc2ccccc2Cl)cc1 [CBK262745] | 99.064
43 | CCc1cc(CNC(=O)c2ccc(C)c(-n3nc(C)cc3C)c2)on1 [CBK281557] | 105.291
44 | COc1ccc(S(=O)(=O)Nc2ccccc2C(=O)O)cc1OC [CBK042368] | 118.011
45 | CC(C)NC(=O)CN1CCN(c2ccc(C#N)cc2Cl)CC1 [CBK305470] | 72.2678
46 | Cc1ccc(C(=O)NCc2nc3ccccc3[nH]2)c(N2CCOCC2)n1 [CBK106200] | 81.4043
47 | Nc1ncc(-c2ccncc2)nc1-c1ccc(C=O)cc1 [CBK064102] | 105.354
48 | CN(C(=O)NC1CCCc2c1cnn2CCO)c1ccccc1F (stereo not drawn) [CBK304024] | 75.4978
49 | CC(C)Nc1cc(Sc2ccc(F)cc2)ncn1 [CBK089498] | 88.1767
50 | Cc1ccc(-c2csc3ncn4nnnc4c23)cc1 [CBK019710] | 91.3948
51 | CN(C)C(=O)C1(Cc2ccc(-c3cccs3)cc2)CCN(C(=O)c2ccccc2)CC1 [CBK286270] | 89.1452
52 | O=C(N/N=C/c1ccc(-c2ccc([N+](=O)[O-])cc2)o1)c1cccnc1 [CBK262287] | 98.9026

Row | Structure (SMILES) | % of control remaining
53 | CCCN1CC(NS(=O)(=O)c2ccc(OC)c3c2CCCC3)CC1=O (stereo not drawn) [CBK307098] | 88.6704
54 | Nc1ccc([C@@H]2CN(Cc3ccccc3)C[C@]23CCCC(=O)N3)cc1 [CBK284649] | 105.102
55 | CCCN1CCCC(NS(=O)(=O)c2cc(-n3cccn3)ccc2OC)C1 (stereo not drawn) [CBK307426] | 29.4715
56 | CC(C)(C)NC(NC(=O)Cc1ccccc1)C(Cl)(Cl)Cl (stereo not drawn) [CBK261090] | 86.1728
57 | Cc1csc2ncc(C(=O)Nc3ccc(Cl)c(Cl)c3)c(=O)n12 [CBK287459] | 79.1556
58 | CCOC(=O)c1cnn(C2CCCN(Cc3cccn3C)C2)c1 (stereo not drawn) [CBK305114] | 103.969
59 | Cc1cc(C(=O)NCCn2ccnc2C)c2cccc(Cl)c2n1 [CBK282460] | 106.894
60 | CN1CCN(C(=O)C2CCN(CCCc3ccccc3)CC2)CC1 [CBK264326G] | 119.444
61 | CCOC(=O)NC(=O)C(C#N)/C=N/NC(=O)CCCNc1ncc(C(F)(F)F)cc1Cl (stereo not drawn) [CBK008354] | 79.6823
62 | CN(C)CC(=O)N1c2ccccc2CCc2ccc(NC(=O)c3ccc([N+](=O)[O-])cc3)cc21 [CBK278207C] | 89.7477
63 | NC(=O)c1ccccc1NC(=O)CSc1nc(N)cc(N)n1 [CBK267983] | 73.1069
64 | CC(Nc1ccc(N2CCOCC2)cc1)C(=O)Nc1cccc(C#N)c1 (stereo not drawn) [CBK305846] | 47.5958
65 | CCCS(=O)(=O)NC[C@H]1C[C@@H]2CCN1C[C@@H]2c1cc(-c2cccs2)nn1C [CBK289101] | 87.1772
66 | CC(C)[C@H]1N=C2C=C(C(C)(C)C)ON2[C@H]2[C@H](O)[C@H](O)C[C@H]21 [CBK303234] | 70.9431
67 | O=C(Cc1ccccc1)N/N=C/c1nnco1 [CBK021274] | 101.855
68 | Cc1c(NC(=O)CSc2ccc(Cl)cc2)cccc1-c1nc2ncccc2o1 [CBK268829] | 74.9437
69 | NCc1ccc2cccc(O)c2n1 [CBK001376T] | 3.53
70 | CCc1nnc(CN(C)Cc2c(C)nn(C)c2Cl)o1 [CBK304132] | 76.7356
71 | CCCCOc1ccc(OC(=O)C2CCN(CCCC)CC2)cc1 [CBK122680] | 136.181
72 | O=C(O)CCC(=O)N1CCC(Cn2cncn2)(C2CCCCC2)CC1 [CBK136809] | 78.0637
73 | Cc1ccc2cc(CNc3ccc4[nH]ncc4c3)c(=O)[nH]c2c1 [CBK281935] | 107.713
74 | Oc1cccc(-c2nccnc2N2CCN(c3ccncc3)CC2)c1 [CBK037079] | 114.017
75 | CC(=O)Nc1ccc(/C=N/NC(=O)CN2CCCCCCC2)cc1 [CBK261617] | 105.714
76 | Cc1cc(=O)[nH]c(SCc2cc(=O)c3ccccc3[nH]2)n1 [CBK294410] | 115.115
77 | O=C(N[C@H]1C[C@H]2C(=O)NC[C@@H](CCC(=O)N3CCCCC3)N2C1)c1cccc(F)c1 [CBK289011] | 95.1702
78 | O=C(O)c1cn(C2CC2)c2cc(N3CCN(C(=S)Nc4ccc5c(c4)OCCO5)CC3)c(F)cc2c1=O [CBK268916] | 73.469

From PMC12040169 (PLOS Biology, 2025)
